The chains are these.
B1: chr20:52831857:52831858:+_ENSG00000101132_ENST00000441080|hu_hu|FALSE|FALSE (ssRNA)
RNA: GGGAGUUCUACAGUCCGACGAUCAAGCAUGAUGUCAUCACAAGCAUCUUCUAGGUUUUGGAGUUGUUUCUUUUUUACUUCUAUUUCUUCCUUCAGCUCUGUGAUUCUACUUGUAUUCCGUGCAAAUUUGUUUAUCUUUUGUUGCAACAGAGGAUUGAGCAUCA
B2: chr6:40197388:40197389:+_ENSMUSG00000057716_ENSMUST00000061740|mus_mus|mus_mus_mus_hu_False|68_98 (ssRNA)
RNA: GGGAGUUCUACAGUCCGACGAUCGAGACACUGGGGUGGAUGGCACCCACCUCUGUUUGGGUGCUAGUAAGAUAGAUUGUUAUUUUGGGAUUCAUGGCCUUGAAUAUCAAGAGGGAAAGGAAGAGGAUGGAAAGAGUCAAGAGUCAACAGAGGAUUGAGCAUCA
B3: chr1:169356373:169356374:+_ENSG00000117475_ENST00000367808|hu_hu|motif|central (ssRNA)
RNA: GGGAGUUCUACAGUCCGACGAUCGGCAAUCAGUUCUCCCCGGCAGUGAUUGCAGCAAUUGAAAGUUAUAUUUUCAUAUCGGGUAUAGGGAUGAAAUCGUCCAAUAUUUUUCUUUGUAGCAAGUAAGGUGGUUGGUGAAGACUCCAACAGAGGAUUGAGCAUCA
B4: chr2:25103730:25103731:-_ENSMUSG00000006471_ENSMUST00000100329|mus_hu|FALSE|FALSE (ssRNA)
RNA: GGGAGUUCUACAGUCCGACGAUCACAGUCCCGCUUCUCCAGCUCCUGCCACUCAGCCUCCCAGUAGAAGUCUUGGUCCCGCCAGCGGCAGCCAAAAAACAAGAAGUUUCCAGUCUGGCCCUGGGCCACACGCUCCUGGAUGGCCAACAGAGGAUUGAGCAUCA
B5: chr1:6218034:6218035:+_ENSMUSG00000025907_ENSMUST00000027040|mus_hu|FALSE|FALSE (ssRNA)
RNA: GGGAGUUCUACAGUCCGACGAUCAUUAAAACUGGCUUAUGUUUGCUUUGCUUGAGAUUGGCAACUGAAUGGCAUUACUGGUUAAACUCAGAAAACCGGCAACGCCUCCUCCUUCGCCGGCGGCAGCAGCAGAGCCAGCGACCCCAACAGAGGAUUGAGCAUCA
B6: chr14:94545736:94545737:-_ENSG00000089737_ENST00000330836|hu_mus|FALSE|FALSE (ssRNA)
RNA: GGGAGUUCUACAGUCCGACGAUCCUCGGACGCUUUGACUUCAUACUCAUUCUGGGCAGCAGCGCCUUCGGCAGCUCGUGCCGCAUCUCUCUGCUUCUUCAACUUGAUCUUUUUCUUUGGGGAGCUGGACUGUCCUUCCUCCUCCAACAGAGGAUUGAGCAUCA
B7: chr16:94690093:94690094:+_ENSMUSG00000040785_ENSMUST00000117648|mus_hu|mus_mus_mus_hu_True|48_108 (ssRNA)
RNA: GGGAGUUCUACAGUCCGACGAUCGGGGACUCCUGUGGGACACACAGCCUCGAUUCCAGGGGGAAAAAGUCUUAGUCGAUACUAAUUUAAAAAGUAUAAUGAUUUUUGAAAAUCAGAUUACAUCUAUAAAAGAUGAAAAGCAAACAACAGAGGAUUGAGCAUCA
B8: chr5:71494600:71494601:+_ENSG00000131711_ENST00000296755|hu_hu|FALSE|FALSE (ssRNA)
RNA: GGGAGUUCUACAGUCCGACGAUCCAUUGUAUCGAAUAACACUGAGGCACGGAAGCCAUAGGGCUCUGCGGAUGCUGCAUCUAUUGGUGGAGAAGAGGAACUGUGGCAAGUUGCUGUUUUCUCUUUGACUGCAGAGGUAGAAUCCAACAGAGGAUUGAGCAUCA
B9: chr12:111875471:111875472:+_ENSMUSG00000018707_ENSMUST00000018851|mus_mus|FALSE|FALSE (ssRNA)
RNA: GGGAGUUCUACAGUCCGACGAUCGUCUGUCCACUCCCUGGUGUUGGGAUCCAAGGUUCCGUAGAGGUGGUCUUUGCUGAUGGCCUUGGGGUCAAUUAUGUGGGCCACGCCCUCCACACCCUCAAGCCUCUCUAGAGCCUUCAGCAACAGAGGAUUGAGCAUCA
B10: chr2:202488911:202488912:-_ENSG00000155755_ENST00000286196|hu_mus|hu_hu_hu_mus_False|1_1 (ssRNA)
RNA: GGGAGUUCUACAGUCCGACGAUCAUUGAAACAUUUUUCAUAAUCUCCAGUAGCAUUUCAGCAUUAUGUAACAAAAGCUCAAUUGUAAAUACAUGUAUCUUAUAAAAAUACACUUAAAAACACGAGUGGGGAGCGCACAAAUACCAACAGAGGAUUGAGCAUCA
B11: 72566378_72566498_195_3pUTR_ENSMUSG00000031858_ENSMUST00000050561|mouse|control|control (ssRNA)
RNA: GGGAGUUCUACAGUCCGACGAUCAUCCGCUGAGGCGGCUUGAAGGGGAACACGGCCUGCAGGCAAUGAACGCACAAGCGGAUCUUGGGCGGGCUAGAUGUUCGGAAGUGCUCGGCGAAACCCAGGAGAGCCAGAUACCACGACCAACAGAGGAUUGAGCAUCA
B12: chr7:150253219:150253220:+_ENSMUSG00000037706_ENSMUST00000037941|mus_mus|FALSE|FALSE (ssRNA)
RNA: GGGAGUUCUACAGUCCGACGAUCCCGGAUGCCACAGCACAGCACCAUGCUCAGAAUCAUCUCAAAGAUCAUAAUGACAGCUACCACAAUGGCUGCAAUUCCAAUGAGGUACAGCUUCCCAGAGAAGAGCUCAUCGAUUUUCUGCAACAGAGGAUUGAGCAUCA
B13: chr1:212156110:212156111:-_ENSG00000143493_ENST00000366992|hu_hu|FALSE|FALSE (ssRNA)
RNA: GGGAGUUCUACAGUCCGACGAUCUCCAUGAGCUGCAAUGCCCCUGUUAUUAUGGUAACAGCACUCUUGGGCUAAUUUGACUAAAUCAGAAGAUCUGGGAGAAGAACUCACAUUUCCUGGAACUAUACUGAAGUAAUGUUUGAUCAACAGAGGAUUGAGCAUCA
B14: chr6:53132721:53132722:-_ENSG00000012660_ENST00000304434|hu_mus|FALSE|FALSE (ssRNA)
RNA: GGGAGUUCUACAGUCCGACGAUCCCCCAUUUGUAUGACCGAUGCCUCGAGCGCACUAGACACGAUUUUAGGAUAAGCAGUCCAAGCACUUUAAACCGAUCUUUAGGUGCUAAUCAGAAAAAAAUUACAGAUGCCACCAUGAUUCAACAGAGGAUUGAGCAUCA
B15: chr4:94236435:94236436:-_ENSMUSG00000028577_ENSMUST00000107107|mus_hu|FALSE|FALSE (ssRNA)
RNA: GGGAGUUCUACAGUCCGACGAUCCUGGGACAUCAUGAGUUUUUGUCCUGCCUGGCCAACAAAACAAUUGCAAAAAGUCCUGAGAGCAAGCAGCUGGUUUGCUGGCUUUCCUUUAGGGUUCAGAAGAUUGAUAAGAUGACUGCUCAACAGAGGAUUGAGCAUCA
B16: 80332580_80332700_4901_3pUTR_ENSG00000156052_ENST00000286548|human|control|control (ssRNA)
RNA: GGGAGUUCUACAGUCCGACGAUCGUACAAAAAAGUAAAUUGCCCUUUAGCUGAAUUACCUUUUUAAAAUAGGCCUGCUAGUUAAUCUACCAAAAAAAAAAAAAUACAAGUUUUACGUGUUCUUCAGAUUCCUUUUGUAGUUGUCAACAGAGGAUUGAGCAUCA
B17: chr4:144460044:144460045:+_ENSG00000153147_ENST00000283131|hu_mus|hu_hu_hu_mus_False|8_18 (ssRNA)
RNA: GGGAGUUCUACAGUCCGACGAUCACGGUCCAUAGCCUGAAGAUCAACUUGCGGAUUCCAAUCUGAGUCAUAUAAAAUGACUACAUCAGCAGUUGCAAGAUUGAUGCCCAGACCACCAGCACGCGUGCUUAACAUGAAUACAAACAACAGAGGAUUGAGCAUCA
B18: 129792989_129793109_2214_3pUTR_ENSG00000077684_ENST00000452328|human|control|control (ssRNA)
RNA: GGGAGUUCUACAGUCCGACGAUCGUGUUGUAGGCACUUUGACUGCAGUCUGAUUAUAGUUUACUUUGAUUAGGGAGCCAUUGCACUUGGGCACUAUCUCCUUCCUUGUGCCAGGUGCUGACUGCCCCACUCCAGGGGAGGUGGCAACAGAGGAUUGAGCAUCA
B19: chr12:96663167:96663168:+_ENSG00000111145_ENST00000228741|hu_hu|motif|central (ssRNA)
RNA: GGGAGUUCUACAGUCCGACGAUCAUGGAUCUAGAGCAUACAUUAAUCCCAGUUUCCAAAGGAAAAGAAAGAAUCAGAUCGGUAGUCAUUUAAAUAUUUCCAAUCAGCAUUUACGUAAACAAGUAUACUAAAAAUAGUAGUUUUCAACAGAGGAUUGAGCAUCA
B20: 85455326_85465482_71_3pUTR_ENSMUSG00000042523_ENSMUST00000123491|mouse|control|control (ssRNA)
RNA: GGGAGUUCUACAGUCCGACGAUCUCUGGGCAUACAGCUUGAUUUCUUUGGCAUCAGAUGGCUUCUGACCAGUCUUUUCUUCCCAUCUGGACAGGGCUUCUUUGAUCGUUGUUGCUUUUGCCAUUCCGGCGGUUGCUACCGUCACAACAGAGGAUUGAGCAUCA
B21: 148668463_148675568_217_3pUTR_ENSMUSG00000025511_ENSMUST00000117634|mouse|control|control (ssRNA)
RNA: GGGAGUUCUACAGUCCGACGAUCCGGUGACGAUGAGCAGGUUGGCAGCCGACAAGGAUGGAAAUGAGGAUGAUAAGGUGGCAAAGUUUCCCUGUGUGGCAGCCAACCAGAUGCCAACACCCAGGACACCACAGCCACCCAGCCCAACAGAGGAUUGAGCAUCA
B22: chr1:39494447:39494448:+_ENSG00000168653_ENST00000372967|hu_mus|hu_hu_hu_mus_False|28_68 (ssRNA)
RNA: GGGAGUUCUACAGUCCGACGAUCGCACCGAGCGGCGUUCUUAUAGGGCUGUUCUGCGCUUAGGAACGUCAACCAUCGGUCCAGGCUGAUGCCCAGCUUUUUCUGUAUGUCCAAGAAAGGCAUGGCUCUGCAGUGCCCUUGUCACAACAGAGGAUUGAGCAUCA

Some of the results follow.

Binding signal data for 22 molecules are collected here from article PMC12136788.

The test addresses T1, UNK ZnF1-3 (human, UniProt Q9C0B0 31-174).
T1 sequence: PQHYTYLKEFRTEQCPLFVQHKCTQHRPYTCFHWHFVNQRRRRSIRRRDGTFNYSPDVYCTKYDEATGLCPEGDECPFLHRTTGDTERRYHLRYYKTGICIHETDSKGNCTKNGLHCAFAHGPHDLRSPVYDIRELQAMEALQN
The experiment in a line: nsRBNS (natural sequence RNA bind-n-seq); RBNS binding buffer (assumed for nsRBNS): 25 mM Tris pH 7.5, 150 mM KCl, 3 mM MgCl2, 0.01% Triton X-100, 500 ug/ml BSA, 20 U/ml SUPERase-In, 4 C; UNK is unkempt and MSI1 is Musashi-1; names of the RNAs are library labels; protein concentration not given here; high values mean tight binding.
As for B1, the binding signal was 0.342 enrichment R.
To B2 belongs 2.01 enrichment R; to B3, 1.8 enrichment R.
To B4 belongs 1.39 enrichment R; to B5, 0.92 enrichment R; to B6, 0.501 enrichment R.
As for B7, the figure is 0.973 enrichment R; as for B8, 1.33 enrichment R.
On to B9, for which the binding signal was determined as 0.653 enrichment R.
As for B10, the figure is 1.19 enrichment R; as for B11, 1.69 enrichment R; as for B12, 1.29 enrichment R.
Regarding B13, the binding signal was found to be 1.23 enrichment R.
To B14 belongs 1.06 enrichment R; to B15, 1.79 enrichment R; to B16, 1.62 enrichment R.
As for B17, the figure is 1.05 enrichment R; as for B18, 0.514 enrichment R.
B19 registered a binding signal of 0.912 enrichment R.
Molecule B20 came in with a binding signal of 0.373 enrichment R.
Take B21: the binding signal stood at 1.58 enrichment R.
As for B22, the figure is 0.521 enrichment R.
